# This is one part of the list. These are further read-outs of the screen, such as a control signal, another cell line or another target. No call is given for them.
# Molecular target: GTPase KRas (Homo sapiens) (UniProt P01116)
# Assay: Cysteine mutants labelled by reactive fragments (mass read-out) (AID 2202238)
# Design: protein at 5 µM with 500 µM competing thiol for 1.5 h
# Details: KRAS G12D cysteine mutants, disulfide tethering, MALDI-TOF labeling, stronger effect = higher value, fragment at 500 µM
# [1] = measured here: G60C mutant labeling
# [2] = measured here: G75C mutant labeling
# [3] = measured here: H94C mutant labeling
# [4] = measured here: I36C mutant labeling
# [5] = measured here: L120C mutant labeling
# [6] = measured here: M67C mutant labeling
# [7] = measured here: M72C mutant labeling
# [8] = measured here: N26C mutant labeling
# [9] = measured here: N86C mutant labeling
# [10] = measured here: P121C mutant labeling
# [11] = measured here: S122C mutant labeling
# [12] = measured here: S136C mutant labeling
# UniProt P01116, sequence (P01116 whole entry, looked up, the tested form may be a part): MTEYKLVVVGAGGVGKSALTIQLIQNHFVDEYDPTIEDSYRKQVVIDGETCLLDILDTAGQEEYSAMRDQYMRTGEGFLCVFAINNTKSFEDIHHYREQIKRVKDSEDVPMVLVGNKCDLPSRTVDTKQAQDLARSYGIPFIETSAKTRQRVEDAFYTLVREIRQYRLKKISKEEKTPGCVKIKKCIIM
Structure (SMILES),percent labeling [1],percent labeling [2],percent labeling [3],percent labeling [4],percent labeling [5],percent labeling [6],percent labeling [7],percent labeling [8],percent labeling [9],percent labeling [10],percent labeling [11],percent labeling [12]
O=C(Cc1csc(-c2sccc2Br)n1)NCCS,30.6%,11.5%,12.3%,5.9%,21.6%,34.8%,38%,19.9%,4.7%,6.2%,3.9%,8%
CN1C(=O)CCC(C(=O)NCCS)C1c1ccccc1 (centres undefined),43.3%,12%,40%,33.5%,34.2%,41.9%,22.8%,35.2%,23.4%,36.8%,32.3%,61.3%
O=C(CCS)NCc1ncc(-c2ccc(F)cc2)[nH]1,,15.3%,51.2%,46.7%,36.1%,48.3%,42.6%,,20.8%,31.3%,28.4%,38.3%
COC(=O)c1cc2c(n1C)CCN(C(=O)CCS)C2,,16.4%,30.2%,34.3%,35.6%,32.3%,35.9%,,19.5%,24.1%,29.6%,44.2%
O=C(CCS)NCCc1noc2ccccc12,,17.1%,41.1%,45.1%,35.4%,45.9%,42.8%,,19.9%,35.1%,33.5%,56.2%
CC(=O)NC(Cc1ccc2c(c1)OCO2)C(=O)NCCS (centres undefined),45.1%,16.9%,38%,34.2%,41.3%,32.7%,24.3%,39.1%,27.6%,34.8%,31.4%,44.5%
O=C(NCCS)C1CCCN(C(=O)c2ccc3[nH]ncc3c2)C1 (centres undefined),38.2%,15%,31%,33.8%,24.5%,44.2%,21.4%,38.3%,25.1%,26.8%,27.9%,41.1%
Cc1ccc(NC(=O)CCS)cc1NC(=O)CCN(C)C,,17%,40%,50.4%,36.3%,46.2%,35.2%,,35%,31.7%,29.9%,54.6%
Cc1cc(C)nc(-n2[nH]c(C(=O)NCCS)cc2=O)n1,20.5%,7.4%,20.3%,10.3%,47.8%,17%,9.4%,25.1%,10.4%,24.7%,31.2%,25.2%
COc1ccccc1Nc1ccc(C(=O)NCCS)cc1,18.3%,8.5%,13.3%,10.3%,14.6%,14.5%,34.4%,29.9%,10.9%,12.9%,9.5%,15.8%
Cn1nccc1C1(CNC(=O)CCS)CC1,,11.8%,29.3%,39.2%,22.4%,31.9%,16.6%,,20.3%,38.6%,33.9%,48.2%
CC1(C)CN(C2(CNC(=O)CCS)CCCCC2)CCO1,,25%,42.2%,45.4%,28.8%,48.3%,39%,,29.4%,31.7%,26.9%,62.6%
COc1ccc(-c2noc(C(=O)NCCNC(=O)CCS)n2)cc1,,5.4%,13.6%,18.3%,9%,11.8%,18.3%,,8.8%,16%,7.3%,20.5%
CC1(C)CCc2cc(NC(=O)CCS)ccc2O1,,15.6%,20.7%,24.2%,24.6%,13.7%,55.8%,,13.8%,13.3%,11.9%,37.6%
CC1Cc2ccccc2N1Cc1occc1C(=O)NCCS (centres undefined),8.2%,6.8%,7%,7%,6.9%,6.5%,0%,7.6%,5.3%,6.8%,0%,7.1%
Cc1cc(C(=O)NCCS)[nH]c1C,25.6%,17.8%,24.1%,19.7%,24.5%,19.5%,21.1%,22.8%,18.1%,20.8%,22.1%,25.9%
CC(Cc1cnc2ccccc2n1)C(=O)NCCS (centres undefined),25.9%,8.3%,27.7%,39.4%,29.4%,41.4%,17.5%,32.8%,21.8%,31.4%,30.8%,43.5%
O=C(CCS)NC1CCN(c2c(F)cccc2F)C1 (centres undefined),,11.4%,30.8%,26.1%,23.2%,29.4%,34.1%,,14%,28.2%,33.9%,43.9%
O=C(NCCS)c1cc(COc2ccccc2F)on1,17.8%,10.4%,13.7%,17.3%,18.9%,24.4%,30.8%,25.8%,6.9%,14.7%,9.5%,14.7%
COc1cc(OC)c2[nH]c(C(=O)NCCS)cc2c1,18.1%,4.8%,11.1%,8.7%,16.1%,10.2%,40.8%,32.7%,12.1%,11%,10.6%,12.8%
CCCn1c(=O)n(CCC(=O)NCCS)c2ccccc21,50.4%,21.6%,42.4%,39.8%,41.9%,43.3%,36.7%,37.9%,21.8%,41.6%,33.3%,65.7%
O=C(CCS)Nc1ccc(Oc2ccc(Cl)cc2)cn1,,15.8%,27.8%,22.7%,26.6%,27.8%,42%,,30.6%,21.7%,11.8%,34.3%
Cc1ccc(CC2CN(C(=O)CCS)C2)cc1,,18.3%,36.6%,32.5%,22.4%,23.8%,47.6%,,20.9%,29.8%,29.8%,48.4%
